Out of some 310,000 compounds screened, about 14,000 (4.5%) showed an effect of 50% or more. The effect is printed as a negative number. The list shows a part of the results.
target: human ether-à-go-go-related gene (hERG) potassium channel (human, UniProt Q12809); experiment: primary screen, population patch clamp on CHO cells stably expressing hERG
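Further: peak tail current of the secondary pulse compared with the same well before compound.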

Sequence of human ether-à-go-go-related gene (hERG) potassium channel (Q12809 whole entry, looked up): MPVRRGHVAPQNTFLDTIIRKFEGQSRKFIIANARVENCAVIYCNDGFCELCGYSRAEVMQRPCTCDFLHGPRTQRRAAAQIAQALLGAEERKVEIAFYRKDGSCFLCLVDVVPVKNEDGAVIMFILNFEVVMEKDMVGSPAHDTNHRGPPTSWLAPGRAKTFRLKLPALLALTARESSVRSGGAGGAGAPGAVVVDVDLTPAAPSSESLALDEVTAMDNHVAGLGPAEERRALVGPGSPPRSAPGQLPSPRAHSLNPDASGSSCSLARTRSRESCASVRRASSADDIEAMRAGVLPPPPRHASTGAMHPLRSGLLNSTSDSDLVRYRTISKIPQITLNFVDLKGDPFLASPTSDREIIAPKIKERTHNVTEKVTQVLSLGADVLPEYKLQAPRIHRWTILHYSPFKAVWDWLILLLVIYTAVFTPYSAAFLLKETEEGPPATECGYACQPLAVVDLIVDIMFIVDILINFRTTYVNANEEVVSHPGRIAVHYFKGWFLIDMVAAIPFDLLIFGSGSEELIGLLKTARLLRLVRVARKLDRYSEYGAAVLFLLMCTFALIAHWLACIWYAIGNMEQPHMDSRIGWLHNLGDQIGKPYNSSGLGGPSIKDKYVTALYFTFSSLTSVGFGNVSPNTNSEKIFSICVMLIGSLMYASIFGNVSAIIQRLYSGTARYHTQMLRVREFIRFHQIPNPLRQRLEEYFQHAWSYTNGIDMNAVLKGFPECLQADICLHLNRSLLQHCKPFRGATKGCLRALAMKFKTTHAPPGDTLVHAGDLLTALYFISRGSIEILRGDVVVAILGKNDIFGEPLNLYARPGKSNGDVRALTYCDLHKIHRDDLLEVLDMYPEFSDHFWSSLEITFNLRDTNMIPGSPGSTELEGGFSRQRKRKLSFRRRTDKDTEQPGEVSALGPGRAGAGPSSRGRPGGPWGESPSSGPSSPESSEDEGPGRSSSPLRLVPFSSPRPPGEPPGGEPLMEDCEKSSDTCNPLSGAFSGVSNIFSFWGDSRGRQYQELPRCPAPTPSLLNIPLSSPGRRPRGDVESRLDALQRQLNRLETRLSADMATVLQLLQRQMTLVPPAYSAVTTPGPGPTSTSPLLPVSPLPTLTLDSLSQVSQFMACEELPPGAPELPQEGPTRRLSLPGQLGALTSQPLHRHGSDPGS

Compound	hERG current change (%, negative = inhibition) at 10uM [%]
O=C(Nn1cnnc1)c1cc(Cl)ccc1Cl	20.9
COc1cccc(/C=N/Nc2ccc(S(=O)(=O)[O-])cc2)c1O.[K+]	3.33
O=C(Nc1ccc2nc3ccccc3nc2c1)c1ccc(Br)cc1	17.9
CCCCOc1ccc(C(=O)NCc2ccccn2)cc1	-14.1
CCC(Sc1nc(-c2cccc(OC)c2)c(C#N)c(=O)[nH]1)C(=O)Nc1nnc(C(C)C)s1 (stereo not drawn)	26.4
O=C(CCc1[nH]c2ccccc2c1Sc1ccccc1)NCCO	-29.5
CCCCCC1CC(CC(=O)Nc2ccc([N+](=O)[O-])cc2)C(=O)O1 (stereo not drawn)	-50
COc1ccc(NS(=O)(=O)c2ccc(OC)c3ccccc23)cn1	-23.9
CC(NC(=O)c1ccc(NC(=O)c2ccco2)cc1)c1ccccc1 (stereo not drawn)	14.8
CCCc1[nH]n(-c2ccc([N+](=O)[O-])cc2)c(=O)c1C(C)=NCc1ccncc1	-52.4
COc1cc(C(=O)N/N=C\c2ccccc2)c([N+](=O)[O-])c(OC)c1OC	-9.89
Cc1nc2ccccc2nc1NS(=O)(=O)c1ccc(N)cc1	24.2
CCn1c(CCCNC(=O)c2ccc(F)cc2)nc2ccccc21	-41.3
COc1ccc(/C=C(\NC(=O)c2ccc(C)cc2)C(=O)Nc2ccc(C(=O)O)cc2)cc1	13.8
O=C(CNC(=O)c1ccc(Cl)cc1)NC(CO)c1ccccc1 (stereo not drawn)	19.6
C[C@@H]1C[C@H]2[C@@H]3CCC4=CC(=O)C=C[C@]4(C)[C@@]3(F)[C@@H](O)C[C@]2(C)[C@H]1C(=O)CO	-7.28
COc1ccccc1N(CC(=O)NCc1cccnc1)S(C)(=O)=O	0.00228
O=C1OC(c2ccc(O)cc2)(c2ccc(O)cc2)c2ccccc21	-47.2
O=C(O)COc1ccc(NC(=O)C(c2ccccc2)c2ccccc2)cc1	9.04
O=c1[nH]ncc(N/N=C\c2cccnc2)c1Cl	-5.75
COc1ccccc1C(CC(=O)Nc1ccc(Cl)cc1)c1ccc(OC(C)C)cc1 (stereo not drawn)	1.17

Compound	hERG current change (%, negative = inhibition) at 10uM [%]
CCc1nnc(NS(=O)(=O)c2ccc(NC(=O)c3ccc(Cl)cc3)cc2)s1	-0.0112
CCOC(=O)N1CCC(N2C(=O)c3ccccc3C2Nc2cc(C)cc(C)c2)CC1 (stereo not drawn)	-21.8
O=C(Nc1nc(-c2ccccn2)cs1)c1cccc(S(=O)(=O)N2CCOCC2)c1	-36.7
Cc1nc2cc(C(F)(F)F)ccc2n1C1CCN(CC(=O)NC(C)(C)C)CC1	-19.4
Nc1nnc(CCOc2ccc(Cl)cc2)s1	4.84
COc1ccc(NC(=O)CNC(=O)c2nn(-c3ccc(OC)cc3OC)c(=O)c3ccccc23)c(OC)c1	14.3
O=C(CN1CCN(CC(=O)Nc2ccc(Cl)cc2)CC1)Nc1ccc(F)cc1	-76.9
Nc1nnc(CC(=O)N/N=C/c2ccc(-c3cccc(C(=O)O)c3)o2)s1	16.8
Cc1ccc(NC(=S)NNC(=S)NC2CCCCC2)cc1	21
C/C(CC(=O)Nc1cccc(C(F)(F)F)c1)=N\NC(=O)C(=O)NCC(C)C	-14.1
COc1ccc(N2CCN(C(=O)COC(=O)c3cc(S(=O)(=O)N(C)C)ccc3N3CCCC3)CC2)cc1	-2.52
Cl.Nc1nc(C23CC4CC(CC(C4)C2)C3)cs1	6.44
O=C(N/N=C/c1ccc([N+](=O)[O-])o1)c1cn(-c2ccccc2)nc1-c1ccccc1	3.46
O=C(Nc1ccccc1)c1ccc[n+](Cc2ccc([N+](=O)[O-])cc2)c1.[Br-]	-4.25
COc1cc(NC(=O)c2ccccc2)c(OC)cc1NC(=O)Cc1ccc(F)cc1	-5.76
CCS(=O)(=O)C1=NN2C(=N)/C(=C\c3ccc(OCCOc4cccc(OC)c4)c(OC)c3)C(=O)N=C2S1	18.4
CCOC(=O)CN1N=C(/C=C/c2ccc(OCC)cc2)CCC1=O	-6.84
COC(=O)[C@H](Cc1ccccc1)NC(=O)NCCc1ccc(F)cc1	-13.2
O=C(Oc1ccccc1Cl)c1ccc(N2CCOCC2)c([N+](=O)[O-])c1	-4.98
CS(=O)(=O)Nc1ccc(C(=O)NC2CCCC2)cc1	10.1
COc1ccccc1CNC(=O)CC1Sc2ccccc2NC1=O (stereo not drawn)	-3.77
